The list shows a part of the results. At the low end of the ranking the order means little.

In this assay the target is T1, GST-Rok-C97-191 (UniProt O34857).
T1 sequence: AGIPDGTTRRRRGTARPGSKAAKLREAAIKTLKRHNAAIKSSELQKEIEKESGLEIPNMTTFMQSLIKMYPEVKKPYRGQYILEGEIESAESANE
Briefly: protein binding microarray.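 Also: rank score from −0.5 (least bound) to 0.5 (best bound).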 The note with it: Rok is a gene silencer of Bacillus subtilis; high values mean tight binding; most listed sequences are background and not binding sites; double strand, one strand shown.
Take GATTTAGC: the binding signal was 0.176 E-score.

The sequence CCGGTCAG showed a binding signal of 0.00515 E-score.

The sequence AATGTGTC showed a binding signal of 0.0699 E-score.

Consider CATTTATA, for which the binding signal came out at 0.354 E-score.

On to AATTAAGC, for which the binding signal stood at 0.109 E-score.

Turning to ATATAGTC, the binding signal stood at 0.225 E-score.

With CCAATCGA, the binding signal is -0.0716 E-score.

In turn, ACACTCCG came in with a binding signal of -0.049 E-score.

Consider GATCCCAA, for which the binding signal is -0.0704 E-score.

Consider ACATCGGC, for which the binding signal was -0.0941 E-score.

The sequence ACACATGC gave a binding signal of 0.0174 E-score.

As to CATGGCCG, the binding signal is -0.2 E-score.

ACCGAGGG gave a binding signal of -0.246 E-score.

In turn, AGCGACCC came in with a binding signal of -0.067 E-score.

In the case of CACTCCGA, the binding signal is -0.102 E-score.

For the sequence GGGCAGAC, the binding signal is -0.362 E-score.

The sequence AGGCACCC yielded a binding signal of -0.15 E-score.

The sequence CATTGTCG registered a binding signal of -0.0906 E-score.

Sequence TCTACGAA yielded a binding signal of 0.163 E-score.

As to CCCCGCTC, the binding signal is -0.0979 E-score.

The sequence GAGCTGCC showed a binding signal of 0.0253 E-score.

The sequence ATCGCGTA gave a binding signal of 0.169 E-score.

CTATTCCC: the binding signal was -0.00501 E-score.

Sequence GTTCCTGA had a binding signal of -0.0326 E-score.

AACCTTGT gave a binding signal of -0.0394 E-score.

Turning to GTGGATTA, the binding signal came out at 0.043 E-score.

Regarding CCGGATCA, the binding signal was -0.0842 E-score.

In the case of TCCCCGAA, the binding signal is -0.174 E-score.

TCCACTCA showed a binding signal of -0.127 E-score.

In the case of CCGGTAAC, the binding signal was -0.0286 E-score.

In the case of GCATGGTA, the binding signal was 0.176 E-score.

Sequence ACGAGCTG showed a binding signal of -0.107 E-score.

Sequence AAATAGCG yielded a binding signal of 0.13 E-score.

The sequence ATGCACAG yielded a binding signal of -0.0539 E-score.

AGTGTGAG gave a binding signal of 0.0718 E-score.

The sequence ACAGTGTA yielded a binding signal of 0.189 E-score.

With GCACTCTA, the binding signal is 0.0351 E-score.

On to TCCTCCCA, for which the binding signal was -0.194 E-score.

ACGATATA showed a binding signal of 0.254 E-score.

In the case of CGACACGC, the binding signal was -0.119 E-score.

Regarding GCCACACC, the binding signal was -0.0569 E-score.

Sequence ACCCAAAG came in with a binding signal of -0.178 E-score.

Sequence AACGCCAC came in with a binding signal of -0.199 E-score.

Turning to GTGCTCAA, the binding signal is -0.219 E-score.

AGTCCAGC yielded a binding signal of -0.059 E-score.

Consider ATTTGGGG, for which the binding signal was -0.231 E-score.

GTTAACCA came in with a binding signal of 0.089 E-score.

Consider GCCCGGCA, for which the binding signal was -0.11 E-score.

Sequence AGCTTTAG gave a binding signal of -0.00686 E-score.

In the case of CATAGCAA, the binding signal worked out at 0.217 E-score.

For the sequence CTACCGCA, the binding signal stood at 0.159 E-score.

As to GGGCCAAA, the binding signal came to 0.0145 E-score.

GAAAGTCA: the binding signal is -0.0265 E-score.

On to GCATCCTA, for which the binding signal was determined as 0.129 E-score.

GTCTTAGA gave a binding signal of -0.0417 E-score.

Sequence GAAATAGA returned a binding signal of 0.162 E-score.

Turning to ATCACCGA, the binding signal was -0.193 E-score.

CGAGACCA registered a binding signal of -0.3 E-score.

CTCCTTCA registered a binding signal of -0.156 E-score.

Regarding ATTCCGTC, the binding signal is -0.0499 E-score.

CACAGGCA gave a binding signal of -0.142 E-score.

AGCAAGGC: the binding signal is -0.185 E-score.

Consider AGTCCCCC, for which the binding signal was -0.336 E-score.

Sequence GGACCGAC returned a binding signal of -0.132 E-score.

On to ACATCCAA, for which the binding signal stood at 0.0324 E-score.

In turn, ACTCAAAC showed a binding signal of -0.0678 E-score.

Sequence GGTGGTAA registered a binding signal of 0.17 E-score.

As for CATTCCGG, the binding signal turned out to be 0.16 E-score.

CATCGTAA came in with a binding signal of 0.115 E-score.

As to ATGATCAT, the binding signal was determined as 0.251 E-score.

GTTTTCGA: the binding signal was determined as 0.0807 E-score.

On to CCCTCGCC, for which the binding signal is -0.239 E-score.

In turn, CAGATAGG returned a binding signal of 0.0813 E-score.

In the case of GTACGAAC, the binding signal is -0.0337 E-score.

AGTATCTG: the binding signal was 0.198 E-score.

On to ATCCAGTA, for which the binding signal was found to be 0.14 E-score.

Take CTGAGTTA: the binding signal stood at 0.131 E-score.

In turn, CTAATCAA showed a binding signal of 0.0936 E-score.

Sequence CGATACAA registered a binding signal of 0.147 E-score.

As for CGCTTTCA, the binding signal was found to be 0.0312 E-score.

On to CTCGAACC, for which the binding signal was -0.129 E-score.

The sequence GCCTAGGC gave a binding signal of -0.309 E-score.

GCGGCTCC yielded a binding signal of -0.366 E-score.

As to CAGCATAC, the binding signal came out at 0.0167 E-score.

ACACGTAA registered a binding signal of 0.0742 E-score.

The sequence AGAGGAGA registered a binding signal of -0.0752 E-score.

With GCGTCACC, the binding signal was -0.285 E-score.

ATCCACGG: the binding signal was -0.135 E-score.

Consider GTTGGCGA, for which the binding signal was determined as 0.0266 E-score.

Take CTATAATC: the binding signal is 0.222 E-score.

Regarding CCGTACCG, the binding signal is -0.144 E-score.

With ATGTGATG, the binding signal is -0.0349 E-score.

GCTGGTGA displayed a binding signal of -0.0713 E-score.

The sequence CTCGCGCA returned a binding signal of 0.0104 E-score.

ACGACTCG came in with a binding signal of -0.0368 E-score.

In the case of AAACGGCT, the binding signal was -0.113 E-score.

Regarding AAGCCTCT, the binding signal was -0.104 E-score.

AAGGAGAC displayed a binding signal of -0.265 E-score.

GCCGGTAA had a binding signal of -0.0519 E-score.

The sequence AGCAGTAT had a binding signal of 0.0236 E-score.

In turn, GGCGTCGA had a binding signal of -0.184 E-score.

The sequence ATTATTGA gave a binding signal of 0.141 E-score.

For CTGGCTCA, the binding signal is -0.0492 E-score.

Consider CTGTAGAA, for which the binding signal is 0.258 E-score.

AAATCTCT displayed a binding signal of 0.168 E-score.

Regarding GCTCTCTA, the binding signal is -0.132 E-score.

For ATACGGCC, the binding signal is -0.159 E-score.

Take GACATACA: the binding signal was found to be 0.0185 E-score.

In turn, CGGCTATC displayed a binding signal of 0.000392 E-score.

Sequence ATCTCTCA gave a binding signal of 0.14 E-score.

The sequence GAGTGCGC came in with a binding signal of -0.179 E-score.

Take GAGATCCA: the binding signal was -0.0168 E-score.

With AATGTCCC, the binding signal was -0.143 E-score.

On to CTATCAAA, for which the binding signal is 0.176 E-score.

Consider AGCAAAAC, for which the binding signal was -0.1 E-score.

As to ATAATATG, the binding signal came to 0.244 E-score.

In the case of CTACCTTA, the binding signal worked out at 0.264 E-score.

CAGCGACC came in with a binding signal of -0.105 E-score.

ACGGGGCA returned a binding signal of -0.208 E-score.

AGCTAACC returned a binding signal of -0.0997 E-score.

In the case of CACTTGAG, the binding signal came to 0.0882 E-score.

With GAAGAATC, the binding signal was determined as 0.0848 E-score.

In turn, GGACCTCA came in with a binding signal of -0.337 E-score.

CAGTTAAA came in with a binding signal of 0.272 E-score.

As for CAGAGTGA, the binding signal is -0.0342 E-score.

Turning to ATGGTGGG, the binding signal was -0.258 E-score.

For the sequence CCAGCGGC, the binding signal was -0.238 E-score.

GCAAGCGC had a binding signal of -0.213 E-score.

With AGGAGGCA, the binding signal is -0.267 E-score.

For GGTTTAGA, the binding signal turned out to be 0.215 E-score.

As to GCGCCGCA, the binding signal is -0.333 E-score.

ACGAATAT: the binding signal is 0.241 E-score.

In turn, GCTTCGTA gave a binding signal of -0.12 E-score.

Consider CACTGCCA, for which the binding signal is -0.134 E-score.

The sequence GATATCCA yielded a binding signal of 0.0457 E-score.

For ATCTGAAT, the binding signal came out at 0.104 E-score.

The sequence ACGAGGAT had a binding signal of -0.145 E-score.

CTAGCAGA returned a binding signal of 0.16 E-score.

Sequence ATTCGAAT returned a binding signal of 0.156 E-score.

In the case of ACGTGTGC, the binding signal is -0.0201 E-score.

For the sequence ACTGGGAA, the binding signal was -0.0335 E-score.

On to CCCGAATC, for which the binding signal is -0.139 E-score.

With GTATAACA, the binding signal amounted to 0.141 E-score.

For GAGGTACA, the binding signal is 0.0875 E-score.

Regarding ACTATCAA, the binding signal was determined as 0.253 E-score.

AAGTGACC gave a binding signal of -0.126 E-score.

The sequence ATGGAAGA gave a binding signal of -0.0605 E-score.

As to ATTATTCA, the binding signal amounted to 0.199 E-score.

The sequence GTGGCCGA yielded a binding signal of -0.0542 E-score.

AGGTGGAT yielded a binding signal of -0.111 E-score.

The sequence ACATCAAT gave a binding signal of 0.0564 E-score.

Take ATACCTTC: the binding signal stood at 0.0592 E-score.

CATGTTTC showed a binding signal of 0.128 E-score.

In turn, ACGGGGGA yielded a binding signal of -0.23 E-score.

For the sequence AGCTAGGG, the binding signal was -0.0587 E-score.

In turn, ACAATGGA yielded a binding signal of -0.0232 E-score.

In turn, AAAATACA yielded a binding signal of 0.32 E-score.

Turning to ACCCACGC, the binding signal was -0.144 E-score.

AGGAGTAC displayed a binding signal of -0.15 E-score.

CGTAATAG had a binding signal of 0.247 E-score.

For CAACGGGG, the binding signal is -0.142 E-score.

Turning to CCTTCCAC, the binding signal is -0.141 E-score.

Regarding AAGGGGGT, the binding signal was -0.376 E-score.

Sequence ATGCTCCG came in with a binding signal of -0.113 E-score.

The sequence AGCAGTCC yielded a binding signal of -0.0761 E-score.

As for TATACAGA, the binding signal stood at 0.267 E-score.

In the case of CACTAAAG, the binding signal came to 0.12 E-score.

For GAGTACAA, the binding signal was 0.136 E-score.

ATCCGTGC yielded a binding signal of -0.0679 E-score.

Take TACCAGCA: the binding signal was 0.0302 E-score.

In turn, TATGAAGA gave a binding signal of 0.0351 E-score.

AGTCATAG: the binding signal is 0.16 E-score.
